The list shows a part of the results.
T1: UNK ZnF1-3 (human, UniProt Q9C0B0 31-174)
T1 sequence: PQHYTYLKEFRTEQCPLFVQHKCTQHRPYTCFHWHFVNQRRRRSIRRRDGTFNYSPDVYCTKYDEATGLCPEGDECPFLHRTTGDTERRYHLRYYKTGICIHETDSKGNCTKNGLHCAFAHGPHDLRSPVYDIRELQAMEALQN

B1: chr2:202488911:202488912:-_ENSG00000155755_ENST00000286196|hu_mus|hu_hu_hu_mus_False|78_108 (ssRNA)
RNA: GGGAGUUCUACAGUCCGACGAUCAUUUAACAUUUUUUCAUAAUCUCCAGUAGCAUUCAGUAUUAUAGUAACAAAAGCUCAAUUGUAAAUACAUGUAUCUUAUAAAAAUACACUUAAAAACACGAGUGGGGAGCGCAGGCGCCACAACAGAGGAUUGAGCAUCA
B2: chr7:40134317:40134318:+_ENSG00000065883_ENST00000340829|hu_mus|motif|central (ssRNA)
RNA: GGGAGUUCUACAGUCCGACGAUCGGAAGGGUCAUUGCUGUUUGUGAGGACUGUGAUAGGACCAUGGCUAUAUUCAAAUCGGUGGUCCUUGUCUCCACUAAACAACAUGGGACCAGCAUUGAGGUAAAUGUCUCCAUAUCCAGCCAACAGAGGAUUGAGCAUCA
B3: chr14:58718896:58718897:+_ENSG00000100567_ENST00000216455|hu_hu|motif|central (ssRNA)
RNA: GGGAGUUCUACAGUCCGACGAUCCCGAUCAACAUUAAAAAGUCUUUUGUUGGAACCUUCUUCAUAAAGUUUAGAAAGGACGGAUUUUUCUACCCCAAAGACAACACCAUCUUUGCAUCUGAUUCCAAUAGCUGUACUACUAUUCAACAGAGGAUUGAGCAUCA
B4: chr1:205589228:205589229:-_ENSG00000158711_ENST00000357992|hu_mus|FALSE|FALSE (ssRNA)
RNA: GGGAGUUCUACAGUCCGACGAUCGUGACCACAAGGGCGGGUGUCAGUUCUAACCCUUUGGGCUUCUUAGAUCUUGAUGAGUUAUUUGUUUUGUCCUUUUCUGGCAAAGCUGAAUCCUCAUUUUUAGGCUCCAGUGAUAAGUUCCAACAGAGGAUUGAGCAUCA
B5: 98684097_98684217_956_CDS_ENSMUSG00000078676_ENSMUST00000169695|mouse|control|control (ssRNA)
RNA: GGGAGUUCUACAGUCCGACGAUCGCGGCCAUCCUUGAAGCCCCCAGAUCGAGAGUAAUUCCUGGAUGCAGACAUGCGGCCAGUACCUGCCGUGUUCCUGUUAAUAAAUGUCCUAGGUGGUAGAUUGCCCCCAGGACCCUGGUGCAACAGAGGAUUGAGCAUCA
B6: chr8:22470488:22470489:+_ENSG00000158941_ENST00000522599|hu_hu|motif|central (ssRNA)
RNA: GGGAGUUCUACAGUCCGACGAUCUGACCCAUCACCAACAGUAAGAAACCACAUUGUUAUAUGUAUUCAAUACAAACUGAACGGAAAGAACUGGAAACAAUCGAAAUCCCUCACAUUCAAUAAAUGGAAAAAGAAUCCAUGCUACAACAGAGGAUUGAGCAUCA
B7: chr12:109526192:109526193:-_ENSG00000189046_ENST00000429722|hu_mus|FALSE|FALSE (ssRNA)
RNA: GGGAGUUCUACAGUCCGACGAUCGUGUGCCAGCUGCAGCCUGACCACCUCCACUGUCCUCCGGGGCCUCUUCCCUCGAGAGUCUUUGUGCCGGAAAAUGAAGUCUCUGCAAGCGCCAAAGGAGACAGACGCGAUGGGGCUCCCCAACAGAGGAUUGAGCAUCA
B8: chr10:71917581:71917582:-_ENSG00000079332_ENST00000373241|hu_hu|FALSE|FALSE (ssRNA)
RNA: GGGAGUUCUACAGUCCGACGAUCCUCAACUUUGGAUUCCACGAGGCGAGAAUGAUCUGCACAGUCCACCAGAAAGACAAUCCCAUUAAUUGCUGGGAGAUAAUUUUUCCAAACGCGACGUGCUUGCUCGUGCCCACCAAGAUCCAACAGAGGAUUGAGCAUCA
B9: chr3:151873496:151873497:+_ENSMUSG00000028034_ENSMUST00000166984|mus_mus|FALSE|FALSE (ssRNA)
RNA: GGGAGUUCUACAGUCCGACGAUCCGCUACAGCACACGCUGCCGUUUCCUCGCGGAGGGAGGCGCCGCUCUCGGUUAACUGCUAAGAAAGGAAGAAGAUGGCGGCCGUCGAGGCUCUAUCACAUUCUUGCACGACCAUCGUGCCCAACAGAGGAUUGAGCAUCA
B10: chr15:79189513:79189514:+_ENSG00000185787_ENST00000426013|hu_mus|motif|central (ssRNA)
RNA: GGGAGUUCUACAGUCCGACGAUCCUCCUUUUAUUUUCUCUGUUUAAAAUCAAAGAGGAAACAAACAACUCUGUUAUACACGGACGGUCUUCAAAGUACAUCAUUUGUACAAGAGAAGGACUAAGAACCAAACUGUUUACAGAGCAACAGAGGAUUGAGCAUCA
B11: chr8:113366663:113366664:-_ENSMUSG00000033732_ENSMUST00000042012|mus_hu|FALSE|FALSE (ssRNA)
RNA: GGGAGUUCUACAGUCCGACGAUCCAAUUUCUGUUUCUCAAUGGCACUAAUCAUAACGGCUCGCCCUUUGGGAUCCACAGCUAAGAACUGGCCAGGAACGAUGCGACGGCAUCCACUCUUGCCAAAGGUUUCUUGGUGAAUCUUCAACAGAGGAUUGAGCAUCA
B12: 93744982_93746653_487_CDS_ENSMUSG00000054079_ENSMUST00000066888|mouse|control|control (ssRNA)
RNA: GGGAGUUCUACAGUCCGACGAUCUUCCUCAUCUUCAUCAUCUUCAUCCACCCAAACUGGCUGCUUCUUCUUCUGAGAAAAAAUGUCUUUUGCUUCAUUUUCCACUUCCGAUUCAUCUGAGCUUCCAUGUAGCUGACCCCGCGACAACAGAGGAUUGAGCAUCA
B13: 54187742_54188414_594_3pUTR_ENSMUSG00000021474_ENSMUST00000021930|mouse|control|control (ssRNA)
RNA: GGGAGUUCUACAGUCCGACGAUCUACAGCAGCGAAGGGAACAAAACGUCCUAUCAGUGGGGAGACACGCUUGGUUAAGGCAUUGAGUCCUAGGGCCGUUGCCACAGCGCCAGUGGUUGCAGAAACAUAAGCCGUUCCCAGCUCCAACAGAGGAUUGAGCAUCA
B14: chr16:2814526:2814527:+_ENSG00000167978_ENST00000301740|hu_mus|motif|central (ssRNA)
RNA: GGGAGUUCUACAGUCCGACGAUCAACCUCAGGAGAAAAGCCAGUAUUUACUUCUGAAACAGGGCCUGAGUUUUUAAACUCGGAAGAUGACUCAAAGCUAUUCUCCCUUGGGGGAGAAUGAGAUAGUUCUUUAUGCUCUGGAGACAACAGAGGAUUGAGCAUCA
B15: chr3:10015032:10015033:+_ENSMUSG00000027533_ENSMUST00000029046|mus_mus|mus_mus_mus_hu_True|1_98 (ssRNA)
RNA: GGGAGUUCUACAGUCCGACGAUCGUUUUUACCAUCACACGUAAUGAUACAAUCUGGCUUGGCCAUUGCGCCCAUUUUUCGCAAAGCUAUUCCCACUCCUAGCUCCUUCAUGUAUUCAUCAAAGCCUUUGCUGUCCAUCAGGCGCAACAGAGGAUUGAGCAUCA
B16: 65274669_65274789_651_3pUTR_ENSMUSG00000051675_ENSMUST00000050850|mouse|control|control (ssRNA)
RNA: GGGAGUUCUACAGUCCGACGAUCUUAUACCUUGCCUGAAGAUCCCUGGAGACGCCCUCCAAGGCUGCCUUCCUCCUCUGCAGCUCUCCAGUAAGUUCCCUUAGACGAGUCAACUUCUCCCCGAAGUCCCUCCGCCGCUCCUCACAACAGAGGAUUGAGCAUCA
B17: chr11:72491332:72491333:+_ENSMUSG00000020794_ENSMUST00000021148|perfect_dup|FALSE|FALSE (ssRNA)
RNA: GGGAGUUCUACAGUCCGACGAUCAGCAUCAACAUUAGCAGGUGAGUCUCCAUUAGGGUCUGCCAGCAUAGAAAUGACACUAAUCAUGAUGGUUUCCACAGUGUGGAUAGGGAGCCAGCGUUCCUCUGGCUUUUCAUAACCAUACAACAGAGGAUUGAGCAUCA
B18: chr8:117878989:117878990:-_ENSG00000164754_ENST00000297338|hu_hu|hu_hu_hu_mus_True|58_58 (ssRNA)
RNA: GGGAGUUCUACAGUCCGACGAUCCCAGAGGCCCUCGUUUACUGAGGACAAAAUGUGCGUAGAACAUUUUUCUUAUUGGCUAUGAAAUAAGAAGAAACCUGGAUCUCGGCGGGGAGCCGGGAGGGGUGGGUGGCCCGGGGAGGGCAACAGAGGAUUGAGCAUCA
B19: chr6:55002191:55002192:+_ENSMUSG00000029777_ENSMUST00000003572|mus_hu|motif|central (ssRNA)
RNA: GGGAGUUCUACAGUCCGACGAUCAUGGUCAGCACGAAAACAUUCUCCAUUUUUUACGUCUUUCACCAUGAAGUCAGCAAAUUUGUCGGCAUGGCCAGAGGUCUUUAAAACUGGCUCAGGGGUGAGCAUGGUGCAAUCGAUCUCCAACAGAGGAUUGAGCAUCA
B20: chr2:48026839:48026840:+_ENSG00000116062_ENST00000540021|hu_hu|hu_hu_hu_mus_False|38_58 (ssRNA)
RNA: GGGAGUUCUACAGUCCGACGAUCAUAGUGAGCCACUAGCGUCCUAAAUCUGGAACAGUGGCGGUCAUCCGAAAACUGACCUAUGAAAAACUUGCCCAGUGAAGUAUCCACAAAGCAAACACCAUACACACGAGUGUGACCAGACAACAGAGGAUUGAGCAUCA
B21: chr17:49627581:49627582:-_ENSMUSG00000040260_ENSMUST00000057610|mus_hu|FALSE|FALSE (ssRNA)
RNA: GGGAGUUCUACAGUCCGACGAUCAUUUUCAUGUUGCCGGAGCUUGUCAAUCACAGGCUGUAUACCCAGCAUCAGGAAUUCAUACCGUAGAUGUAGGCGGAACUCCAGAUUAUCCUCUCCAGCUCCAGCAUUGAGGACAGCAUUCAACAGAGGAUUGAGCAUCA
B22: chr5:137527996:137527997:-_ENSG00000094880_ENST00000394886|hu_hu|FALSE|FALSE (ssRNA)
RNA: GGGAGUUCUACAGUCCGACGAUCUUCUCCUAAAGCAACCAGCAUGCGAGAAUCAUUGGGUCGAAGCUGGUGGGCCCGUCUAUAAUAAUAAAGGCAGUAAAAUGGCAUCUUAAGGAUUUCAUAGGUCUGCCCGAGGCCAUACCACAACAGAGGAUUGAGCAUCA

Each binder was assayed against T1, UNK ZnF1-3 (assay: nsRBNS (natural sequence RNA bind-n-seq); RBNS binding buffer (assumed for nsRBNS): 25 mM Tris pH 7.5, 150 mM KCl, 3 mM MgCl2, 0.01% Triton X-100, 500 ug/ml BSA, 20 U/ml SUPERase-In, 4 C; UNK is unkempt and MSI1 is Musashi-1; names of the RNAs are library labels; protein concentration not given here; high values mean tight binding).

| Binder | binding signal |
| --- | --- |
| B1 | 1.06 enrichment R |
| B2 | 0.918 enrichment R |
| B3 | 1.09 enrichment R |
| B4 | 0.577 enrichment R |
| B5 | 0.933 enrichment R |
| B6 | 1.16 enrichment R |
| B7 | 1.09 enrichment R |
| B8 | 1.68 enrichment R |
| B9 | 0.928 enrichment R |
| B10 | 1.33 enrichment R |
| B11 | 0.828 enrichment R |
| B12 | 0.689 enrichment R |
| B13 | 1.04 enrichment R |
| B14 | 1.34 enrichment R |
| B15 | 0.768 enrichment R |
| B16 | 0.944 enrichment R |
| B17 | 1.17 enrichment R |
| B18 | 1.56 enrichment R |
| B19 | 0.785 enrichment R |
| B20 | 1.06 enrichment R |
| B21 | 0.878 enrichment R |
| B22 | 1.21 enrichment R |
